Measurements as given in the supplement of paper PMC12217912.
The other results are listed elsewhere or left out. The full chains were built here from the parent and the listed change. Values near 0.05 are background.

B1: TEV protease; numbered along this chain (parent)
chain: MGESLFKGPRDYNPISSSICHLTNESDGHTTSLYGIGFGPFIITNKHLFRRNNGTLVVQSLHGVFKVKDTTTLQQHLVDGRDMIIIRMPKDFPPFPQKLKFREPQREERICLVTTNFQTKSMSSMVSDTSCTFPSGDGIFWKHWIQTKDGQCGSPLVSTRDGFIVGIHSASNFTNTNNYFTSVPKNFMELLTNQEAQQWVSGWRLNADSVLWGGHKVFMVKPEEPFQPVKEATQL

Variants of: B1
Assay: raw area under fraction-flipped curve 0-4 h after induction (AUC4h, not background-subtracted), DNA-recorder readout of cleavage of the substrate (dimensionless); higher = more cleavage of the substrate by the protease variant
Conditions: temperature: 34 °C; time window: 0-4 h after rhamnose induction
Method: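 In vivo DNA recorder in E. coli TOP10(DE3) ΔrhaA at 34 °C. Each TEVp single-site mutant (parent TEVp 0) is paired with a single-site variant of the 7-mer TEVs (canonical ENLYFQ|S). The substrate sits between flexible linkers in a Bxb1-sfGFP-TEVs-SsrA fusion, so cleavage stabilises Bxb1 and speeds flipping of a recombination array, read by NGS. The value is the raw area under the fraction-flipped curve over 0-4 h after rhamnose induction (AUC4h), with ≥20 reads per time point. It is not background-subtracted; inactive controls average about 0.047.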
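Note: Bxb1 expression induced with 0.2% (w/v) L-rhamnose at OD600 near 0.5, cultures sampled hourly, flipped fraction per protease–substrate barcode pair counted by paired-end Illumina sequencing.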

Variant	area with substrate ENLYFCS	area with substrate ENLYFFS	area with substrate ENLYFGS	area with substrate ENLYFIS	area with substrate ENLYFKS	area with substrate ENLYFLS	area with substrate ENLYFNS	area with substrate ENLYFRS	area with substrate ENLYFTS	area with substrate ENLYFVS	area with substrate ENLYFWS	area with substrate ENLYFYS	area with substrate ENLYFDS	area with substrate ENLYFES	area with substrate ENLYFMS	area with substrate ENLYFPS	area with substrate ENLYFHS	area with substrate ENLYFSS
MGESLFKGPRDYNPISSSICHLTNESDGHTTSLYGIGFGPFIITNKHLFRRNNGTLVVQSLHGVFKVKDTTTLQQHLVDGRDMIIIRMPKDFPPFPQKLKFREPQREERICLVTTNFQTKSMSSMVSDTSCTFPSGDGIFWKHWIQTKDGQCGSPLVSTRDGLIVGIHSASNFTNTNNYFTSVPKNFMELLTNQEAQQWVSGWRLNADSVLWGGHKVFMVKPEEPFQPVKEATQL [F163L]	0.0714	0.0707	0.0625	0.053	0.068	0.0662	0.0732	0.0495	0.0556	0.062	0.0745	0.0434						
MGESLFKGPRDYNPISSSICHLTNESDGHTTSLYGIGFGPFIITNKHLFRRNNGTLVVQSLHGVFKVKDTTTLQQHLVDGRDMIIIRMPKDFPPFPQKLKFREPQREERICLVTTNFQTKSMSSMVSDTSCTFPSGDGIFWKHWIQTKDGQCGSPLVSTRDGFYVGIHSASNFTNTNNYFTSVPKNFMELLTNQEAQQWVSGWRLNADSVLWGGHKVFMVKPEEPFQPVKEATQL [I164Y]	0.0491	0.0695	0.056	0.0572	0.0461		0.0472	0.0559	0.0495	0.0571		0.0491	0.0424	0.0606	0.0509	0.0545		
MGESLFKGPRDYNPISSSICHLTNESDGHTTSLYGIGFGPFIITNKHLFRRNNGTLVVQSLHGVFKVKDTTTLQQHLVDGRDMIIIRMPKDFPPFPQKLKFREPQREERICLVTTNFQTKSMSSMVSDTSCTFPSGDGIFWKHWIQTKDGQCGSPLVSTRDGFIVGIHSASNITNTNNYFTSVPKNFMELLTNQEAQQWVSGWRLNADSVLWGGHKVFMVKPEEPFQPVKEATQL [F173I]	0.0694	0.0519		0.0557	0.0634	0.0725	0.0752	0.06	0.0587	0.0634	0.0465			0.0648	0.0622	0.0564	0.0559	
MGESLFKGPRDYNPISSSICHLTNESDGHTTSLYGIGFGPFIITNKHLFRRNNGTLVVQSLHGVFKVKDTTTLQQHLVDGRDMIIIRMPKDFPPFPQKLKFREPQREERICLVTTNFQTKSMSSMVSDTSCTFPSGDGIFWKHWIQTKDGQCGSPLVSTRDGFIVGIHSASNFTMTNNYFTSVPKNFMELLTNQEAQQWVSGWRLNADSVLWGGHKVFMVKPEEPFQPVKEATQL [N175M]	0.0604		0.0831	0.0577	0.0609			0.087	0.0626		0.0468	0.0574	0.0568	0.0659	0.0755	0.0568	0.0758	
MGESLFKGPRDYNPISSSICHLTNESDGHTTSLYGIGFGPFIITNKHLFRRNNGTLVVQSLHGVFKVKDTTTLQQHLVDGRDMIIIRMPKDFPPFPQKLKFREPQREERICLVTTNFQTKSMSSMVSDTSCTFPSGDGIFWKHWIQTKDGQCGSPLVSTRDGFIVGIHSASNFTPTNNYFTSVPKNFMELLTNQEAQQWVSGWRLNADSVLWGGHKVFMVKPEEPFQPVKEATQL [N175P]	0.0664	0.0727		0.049	0.151		0.0649	0.0599		0.053	0.0656	0.0751		0.0524		0.0588		0.0696
MGESLFKGPRDYNPISSSICHLTNESDGHTTSLYGIGFGPFIITNKHLFRRNNGTLVVQSLHGVFKVKDTTTLQQHLVDGRDMIIIRMPKDFPPFPQKLKFREPQREERICLVTTNFQTKSMSSMVSDTSCTFPSGDGIFWKHWIQTKDGQCGSPLVSTRDGFIVGIHSASNFTYTNNYFTSVPKNFMELLTNQEAQQWVSGWRLNADSVLWGGHKVFMVKPEEPFQPVKEATQL [N175Y]	0.0571	0.067		0.0763	0.0762		0.0641		0.0601	0.0663	0.0549	0.0461			0.0849		0.0581	0.0599
MGESLFKGPRDYNPISSSICHLTNESDGHTTSLYGIGFGPFIITNKHLFRRNNGTLVVQSLHGVFKVKDTTTLQQHLVDGRDMIIIRMPKDFPPFPQKLKFREPQREERICLVTTNFQTKSMSSMVSDTSCTFPSGDGIFWKHWIQTKDGQCGSPLVSTRDGFIVGIHSASNFTNTNNYFASVPKNFMELLTNQEAQQWVSGWRLNADSVLWGGHKVFMVKPEEPFQPVKEATQL [T181A]	0.0684	0.0734	0.0483	0.0595							0.0447			0.0753		0.0509	0.0596	0.055
MGESLFKGPRDYNPISSSICHLTNESDGHTTSLYGIGFGPFIITNKHLFRRNNGTLVVQSLHGVFKVKDTTTLQQHLVDGRDMIIIRMPKDFPPFPQKLKFREPQREERICLVTTNFQTKSMSSMVSDTSCTFPSGDGIFWKHWIQTKDGQCGSPLVSTRDGFIVGIHSASNFTNTNNYFTSEPKNFMELLTNQEAQQWVSGWRLNADSVLWGGHKVFMVKPEEPFQPVKEATQL [V183E]	0.067	0.0596		0.057		0.0544	0.0622		0.0334					0.0432	0.0412	0.041		
MGESLFKGPRDYNPISSSICHLTNESDGHTTSLYGIGFGPFIITNKHLFRRNNGTLVVQSLHGVFKVKDTTTLQQHLVDGRDMIIIRMPKDFPPFPQKLKFREPQREERICLVTTNFQTKSMSSMVSDTSCTFPSGDGIFWKHWIQTKDGQCGSPLVSTRDGFIVGIHSASNFTNTNNYFTSVPFNFMELLTNQEAQQWVSGWRLNADSVLWGGHKVFMVKPEEPFQPVKEATQL [K185F]	0.0568	0.078	0.0691	0.0628		0.0781	0.0699	0.0408			0.0625		0.0609	0.0544	0.0706	0.057		0.0692
